Reference: PubChem BioAssay AID686978 (National Center for Advancing Translational Sciences (NCATS), 2013)
Hit rate of the full screen: of about 420,000 compounds, about 64,000 (15%) were called active. This list was built around the results that the source calls inconclusive (neither active nor inactive); the mix of calls is not that of the screen. Calls come from the whole dose curve; as a rule, active = well fitted inhibition curve with a large enough effect; inconclusive = small, poorly fitted or top-dose-only effect; inactive = flat fitted curve, though single readings scatter. Potencies of inconclusive entries are left out as doubtful fits.

Assay: qHTS for Inhibitors of human tyrosyl-DNA phosphodiesterase 1 (TDP1): qHTS in cells in absence of CPT; note: nearly all actives have a fitted effect of over 55% in size
Details: DT40 Tdp1-/- hTDP1 cells, no CPT, ATP luminescence, 48 h; activity change, negative = growth inhibition: at 46.2 µM (top of the series) unless noted
Procedure, shortened: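 A cellular qHTS used chicken DT40 cells lacking endogenous Tdp1 but carrying stably transfected human TDP1. Compounds were applied without camptothecin, and cell growth kinetics were judged by ATP-dependent luminescence after ≥48 hr.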
% is set by controls: 0 for no effect and ±100 for the full control effect; potency is the fitted concentration of half-maximal effect; tags give direction and shape of the fitted curve.

Q: With `Cc1nnc2sc(-c3ccc(-c4ccc(Cl)c(C(F)(F)F)c4)o3)nn12` as the compound, how does the Potency read?
A: inconclusive [inhibitor, single point]

Q: For `Cc1ccccc1NC(=O)c1cc(-c2ccco2)nc2ccccc12`, which Potency is on record?
A: inconclusive [inhibitor, partial curve]

Q: For `COc1ccccc1-n1c(SCC(=O)Nc2cccc(C)c2)nc2c(c1=O)SCC2`, which activity change, negative = growth inhibition is on record?
A: inconclusive: -30.1% [inhibitor]

Q: For `CCCCNC(=O)Nc1nnc(-c2ccc(OCC)cc2)o1`, which Potency is on record?
A: inconclusive [inhibitor, single point]

Q: For `COc1cc([N+](=O)[O-])cc2sc(NC(C)=O)nc12`, which Potency is on record?
A: inconclusive [inhibitor, single point]

Q: For `c1ccc(CN2CCN(CCCNc3ccc4nnc(-c5ccccc5)n4n3)CC2)cc1`, which Potency is on record?
A: inconclusive [inhibitor, single point]

Q: Which Potency does the source give for `COc1ccc(N(CC(=O)NCCSC2CCCCC2)S(=O)(=O)c2ccc(C)cc2)cc1` here?
A: active: 23.1 µM

Q: Which Potency does the source give for `COc1ccc(/C=C/C(=O)NC(=S)NNC(=O)c2cnccn2)cc1` here?
A: active: 5.17 µM

Q: Which Potency does the source give for `COc1cc(CNCCN2CCOCC2)ccc1OCc1cccc(Cl)c1` here?
A: active: 16.4 µM

Q: Which Potency does the source give for `CC(C)(C)NC(=O)C(c1ccc(-c2ccccc2)cc1)N(C[C@H]1CC[C@@H]([C@@H]2CC[C@H](CO)O2)O1)C(=O)c1ccccc1F` (some centres undefined) here?
A: active: 16.4 µM

Q: For `COc1ccc(CNC(=O)CCc2nc(-c3ccc(C)cc3)no2)c(OC)c1`, which Potency is on record?
A: inconclusive [inhibitor, partial curve]

Q: With `Cn1c(=O)n(C)c2cc(N3CCCCC3)c(NC(=O)c3ccc(C(C)(C)C)cc3)cc21` as the compound, how does the Potency read?
A: inconclusive [inhibitor, partial curve, poor fit]

Q: For `CCCCCC1CC(CC(=O)NC(=S)Nc2ccc([N+](=O)[O-])cc2)C(=O)O1` (centres undefined), which “activity change, negative = growth inhibition” value is on record?
A: inactive: -16.1%

Q: Which Potency does the source give for `N#Cc1cccc(-c2nccc(NCc3cccs3)n2)c1` here?
A: inconclusive [inhibitor, single point]

Q: With `COc1ccc(COc2cc(-c3cccc(OC)c3)nc3ccc(NC(=O)C(C)C)cc23)cc1` as the compound, how does the Potency read?
A: active: 4.61 µM

Q: Which Potency does the source give for `Fc1ccccc1/C=C1\CCCC2=C1NC(=S)NC2c1ccccc1F` (centres undefined) here?
A: inconclusive [inhibitor, single point]

Q: Which Potency does the source give for `Cc1ccccc1CSCC(=O)NCc1ccco1` here?
A: inconclusive [inhibitor, single point]

Q: With `NC(=O)CSc1nnc(COc2ccccc2)n1CCc1ccccc1` as the compound, how does the Potency read?
A: inconclusive [inhibitor, single point]

Q: Which Potency does the source give for `C=CCNc1nnc(SCC(=O)Nc2ccccc2OC)c2ccccc12` here?
A: inconclusive [inhibitor, single point]

Q: Which Potency does the source give for `CC(C)OCCCNC(=O)c1ccc2c(c1)S(=O)(=O)c1ccccc1C2=O` here?
A: inconclusive [inhibitor, single point]

Q: For `CC1CC(C)CN(CCOc2cccc3ccccc23)C1` (centres undefined), which Potency is on record?
A: inconclusive [inhibitor, single point]

Q: With `CCCCNC(=O)c1ccc2nc(CC)c(N(C)Cc3ccc(OC)cc3)n2c1` as the compound, how does the Potency read?
A: inconclusive [inhibitor, single point]

Q: For `N#C/C(=C/c1ccc(N2CCOCC2)o1)c1ccc(Cl)cc1`, which Potency is on record?
A: active: 14.6 µM

Q: With `O=C(NCCC1=CCCCC1)c1ccc(F)cc1` as the compound, how does the activity change, negative = growth inhibition read?
A: inconclusive: -35.1% [inhibitor]

Q: Which “activity change, negative = growth inhibition” value does the source give for `O=C(c1ccc(S(=O)(=O)Nc2ccccc2)cc1)N1CCC1` here?
A: inactive: -19.6%

Q: Which activity change, negative = growth inhibition does the source give for `O=C(c1ccc(=O)[nH]c1)N1CCN(S(=O)(=O)c2ccc(Cl)cc2)CC1` here?
A: inconclusive: -13.2% [inhibitor]

Q: With `COc1ccc(-c2csc(N3CCN(c4cc(C)nc5ccccc45)CC3)n2)cc1OC` as the compound, how does the Potency read?
A: active: 14.6 µM

Q: Which “activity change, negative = growth inhibition” value does the source give for `O=C1CC/C=C\C[C@@H](CC(=O)N(CCO)Cc2ccccc2)C(=O)NC[C@@H](c2ccccc2)O1` here?
A: inactive: -26.3%

Q: For `Brc1ccc(/C=C2\C=Cc3ccccc32)cc1`, which Potency is on record?
A: inconclusive [inhibitor, partial curve]

Q: For `NC(=S)N/N=C/c1coc2ccc(O)cc2c1=O`, which Potency is on record?
A: inconclusive [inhibitor, single point]

Q: Which Potency does the source give for `Cc1ccc(NC(=O)c2ccc(NC(=O)N3CCSc4ncccc43)cc2)c(C)c1` here?
A: inconclusive [inhibitor, single point]

Q: With `O=C(O)Cc1ccc(NC(=O)C2CCCCC2C(=O)O)cc1` (centres undefined) as the compound, how does the “activity change, negative = growth inhibition” value read?
A: inactive: -3.53%

Q: With `CCOc1ccc(CN2CCN(Cc3cccn3-c3ncccn3)CC2CCO)cc1` (centres undefined) as the compound, how does the Potency read?
A: inconclusive [inhibitor, partial curve, poor fit]

Q: Which Potency does the source give for `COc1ccc(C)cc1-n1cnc2cc(C(=O)NC3CCCC3)ccc21` here?
A: inconclusive [inhibitor, single point]

Q: Which Potency does the source give for `Cc1cc([N+](=O)[O-])ccc1NCc1cccc([N+](=O)[O-])c1` here?
A: inconclusive [inhibitor, single point]

Q: Which Potency does the source give for `O=C(NC1CC1)C1CCN(c2ccc(S(=O)(=O)N3CCOCC3)cc2Cl)CC1` here?
A: inconclusive [inhibitor, partial curve]

Q: For `CN(Cc1nc(-c2ccc(C(F)(F)F)cc2)no1)C1CCOCC1`, which “activity change, negative = growth inhibition” value is on record?
A: inactive: -0.623%

Q: Which Potency does the source give for `OC(CNCc1ccc(F)cc1)(c1ccc(F)cc1)c1ccc(F)cc1` here?
A: inconclusive [inhibitor, single point]

Q: With `Cc1ccc(SC(CC(=O)c2ccc(C)cc2)C(=O)O)cc1` (centres undefined) as the compound, how does the Potency read?
A: inconclusive [inhibitor, single point]

Q: Which Potency does the source give for `COc1ccc(Cl)cc1C(=O)C1CCCN(Cc2cnc(N3CCOCC3)s2)C1` (centres undefined) here?
A: active: 29.1 µM

Q: Which Potency does the source give for `COc1ccccc1NC(=O)Cn1nnc(-c2ccccc2NC(=O)c2ccco2)n1` here?
A: inconclusive [inhibitor, full curve]

Q: With `C[C@@H](NC(=O)[C@@H]1CCCN1C(=O)[C@@H]1CCCN1C(=O)c1cccc(Cl)c1)c1ccccc1` as the compound, how does the “activity change, negative = growth inhibition” value read?
A: inactive: -17.1%

Q: Which Potency does the source give for `C=CCSc1nc2sc3c(c2c(=O)n1CC)CCc1ccccc1-3` here?
A: inconclusive [inhibitor, single point]

Q: With `O=C(Nc1ncc(S(=O)(=O)c2ccc([N+](=O)[O-])cc2)s1)c1ccc2ccccc2c1` as the compound, how does the Potency read?
A: inconclusive [inhibitor, single point]

Q: For `Cc1ccc(C2C(C#N)=C(N)Oc3n[nH]c(-c4cccs4)c32)s1` (centres undefined), which “activity change, negative = growth inhibition” value is on record?
A: inactive: -11.9%

Q: For `CC1CC(C)CN(CCCCOc2ccc([N+](=O)[O-])cc2)C1` (centres undefined), which Potency is on record?
A: inconclusive [inhibitor, single point]

Q: Which Potency does the source give for `Cc1ccccc1Nc1c(-c2cccs2)nc2cccc(C)n12` here?
A: active: 13 µM

Q: For `O=C(OC1Cc2c(O)cc(O)cc2OC1c1cc(O)c(O)c(O)c1-c1c(C2Oc3cc(O)cc(O)c3CC2O)cc(O)c(O)c1O)c1cc(O)c(O)c(O)c1` (centres undefined), which “activity change, negative = growth inhibition” value is on record?
A: inactive: -3.6%

Q: Which Potency does the source give for `O=C(/C=C/c1cccs1)NC(=S)Nc1ccc(S(=O)(=O)Nc2ccccc2C(F)(F)F)cc1` here?
A: inconclusive [inhibitor, single point]

Q: Which Potency does the source give for `CN(C)c1ccc(CNC2CC(C)(C)NC(C)(C)C2)cc1` here?
A: inconclusive [inhibitor, single point]

Q: Which “activity change, negative = growth inhibition” value does the source give for `O=C(NCc1cccc(F)c1)C1CCC(=O)N(CC2CCCCC2)C1` (centres undefined) here?
A: inactive: -15.4%

Q: Which “activity change, negative = growth inhibition” value does the source give for `CC(=O)Nc1ccc(NC(=O)C(C)OC(=O)CCC2CCCC2)cc1` (centres undefined) here?
A: inactive: -29.8%

Q: With `Cc1nc(NC(=O)C2CC2)sc1C(=O)Nc1ccccc1Cl` as the compound, how does the Potency read?
A: inconclusive [inhibitor, single point]

Q: With `COC(=O)C(c1ccccc1Cl)N1CCc2sccc2C1` (centres undefined) as the compound, how does the Potency read?
A: inactive

Q: For `COc1ccccc1NC(=O)Cn1c(=O)n(CCCCCC(=O)NCc2ccccc2)c(=O)c2sccc21`, which Potency is on record?
A: inconclusive [inhibitor, full curve]

Q: With `O=C(COC(=O)COc1ccc(Cl)cc1)NCc1cccs1` as the compound, how does the “activity change, negative = growth inhibition” value read?
A: inactive: -0.802%

Q: With `CCCCOc1cccc(OCCCC)c1C(=O)Nc1cc(C)on1` as the compound, how does the Potency read?
A: inconclusive [inhibitor, partial curve, poor fit]

Q: With `CN1C(=O)[C@@H]2C[C@@]3([C@@]45C[C@H]6C(=O)N(C)[C@@H](Cc7ccccc7)C(=O)N6[C@@H]4Nc4ccccc45)c4ccccc4N[C@H]3N2C(=O)[C@@H]1Cc1ccccc1` as the compound, how does the Potency read?
A: inconclusive [inhibitor, single point]

Q: Which Potency does the source give for `CC(=O)c1ccc(OCC(O)CN2CCN(c3ccc(F)cc3)CC2)cc1` (centres undefined) here?
A: active: 23.1 µM

Q: With `Cc1ccc(CC(=O)NCCc2ccc(S(N)(=O)=O)cc2)cc1` as the compound, how does the Potency read?
A: inconclusive [inhibitor, partial curve]

Q: Which Potency does the source give for `CCOC(=O)c1c(C)oc2nc(C)nc(NCc3ccccc3OC)c12` here?
A: active: 14.6 µM

Q: Which “activity change, negative = growth inhibition” value does the source give for `Cc1ccc(S(=O)(=O)N2C[C@H]3[C@H]4C(=O)N(c5ccccc5)C(=O)[C@H]4CC(=O)[C@H]3[C@@H]2c2ccccc2F)cc1` here?
A: inactive: 0.543%

Q: With `CCN(CC)c1ccc(NC(=O)CSc2nnc3nc(C)cc(C)n23)cc1` as the compound, how does the Potency read?
A: inconclusive [inhibitor, single point]

Q: With `Cc1cc2cc(C(c3nnnn3C3CCCC3)N(Cc3cccnc3)Cc3ccco3)c(=O)[nH]c2cc1C` (centres undefined) as the compound, how does the Potency read?
A: inconclusive [inhibitor, single point]

Q: Which Potency does the source give for `O=C(Nc1ccc(C2CC2(Cl)Cl)cc1)c1cccc([N+](=O)[O-])c1` (centres undefined) here?
A: active: 18.4 µM

Q: For `COc1ccc(NC(=O)CSCC(=O)Nc2ccc(C)c(S(=O)(=O)N3CCCCCC3)c2)cc1`, which “activity change, negative = growth inhibition” value is on record?
A: inactive: -6%

Q: For `CC(C)(C)C(=O)N(Cc1ccc(Cl)cc1)Cc1cccnc1`, which “activity change, negative = growth inhibition” value is on record?
A: inactive: -22%

Q: With `O=C(Cn1c(=O)oc2cc(S(=O)(=O)NCc3ccccc3)ccc21)NCc1ccc(Cl)cc1` as the compound, how does the Potency read?
A: inconclusive [inhibitor, partial curve]

Q: Which Potency does the source give for `Cc1cc(/C=C(/C#N)C(=O)Nc2ccccc2)c(C)n1-c1cccnc1` here?
A: inconclusive [inhibitor, single point]
